Reference: the BET-seq Pho4 binding data (Le et al. 2018)
The other results are listed elsewhere or left out. Values were computed here from the reads of four pooled replicates and scatter widely.

Each sequence was assayed against T1, Pho4 (S. cerevisiae) (UniProt P07270) (assay: relative binding free energy (BET-seq); higher = weaker binding). Settings: reference: library average.
T1 sequence: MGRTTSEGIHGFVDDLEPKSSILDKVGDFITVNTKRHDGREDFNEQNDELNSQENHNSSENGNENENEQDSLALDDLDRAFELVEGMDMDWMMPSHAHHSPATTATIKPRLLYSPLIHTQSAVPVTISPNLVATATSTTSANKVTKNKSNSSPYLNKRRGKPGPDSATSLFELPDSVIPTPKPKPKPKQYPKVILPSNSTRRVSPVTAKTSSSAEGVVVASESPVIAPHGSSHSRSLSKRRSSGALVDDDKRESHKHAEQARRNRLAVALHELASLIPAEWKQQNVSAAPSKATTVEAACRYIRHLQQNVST

Row | Sequence | relative binding free energy
1 | AGGGGCACGTGAAGCG | 0.14 kcal/mol
2 | GGGAGCACGTGTGCAT | -0.01 kcal/mol
3 | GCGGTCACGTGTGTTG | 0.07 kcal/mol
4 | GGTTGCACGTGGGGCT | -0.04 kcal/mol
5 | TTTAACACGTGTGATT | 0.1 kcal/mol
6 | GCGTGCACGTGTTGAG | 0.14 kcal/mol
7 | GGCGGCACGTGGTAAA | -0.08 kcal/mol
8 | ATTTCCACGTGGAGTT | 0.13 kcal/mol
9 | GTGCGCACGTGGGGCT | -0.28 kcal/mol
10 | GGGAACACGTGAAAGG | 0.19 kcal/mol
11 | AGGCTCACGTGAGAGG | 0.25 kcal/mol
12 | AGTCTCACGTGCTGGG | 0.15 kcal/mol
13 | TTATACACGTGTATTC | 0.1 kcal/mol
14 | GCGAACACGTGGAGGG | -0.08 kcal/mol
15 | GTCTCCACGTGAGGGG | 0.29 kcal/mol
16 | TTTGACACGTGCGTCG | -0.14 kcal/mol
17 | TCGTGCACGTGGTCTG | -0.26 kcal/mol
18 | TATGGCACGTGGATGA | 0.01 kcal/mol
19 | TTGACCACGTGAAGGG | 0.31 kcal/mol
20 | GATTGCACGTGAAAGG | 0.38 kcal/mol
21 | AATAGCACGTGGTGAG | -0.27 kcal/mol
22 | TTTCACACGTGGCGGT | 0.08 kcal/mol
23 | GTTTTCACGTGTAGTG | 0.26 kcal/mol

Row | Sequence | relative binding free energy
24 | GGCAGCACGTGTGTTT | -0.1 kcal/mol
25 | AATAACACGTGGGGAT | -0.16 kcal/mol
26 | TGTAGCACGTGTTTGT | -0.02 kcal/mol
27 | GGTGACACGTGGTTAA | -0.07 kcal/mol
28 | GTTCGCACGTGTGCAT | 0.21 kcal/mol
29 | CTTTTCACGTGACTTG | 0.31 kcal/mol
30 | TTGGACACGTGGTTAC | -0.06 kcal/mol
31 | TAATACACGTGTTTGT | -0.07 kcal/mol
32 | GTAGGCACGTGGCCGT | -0.09 kcal/mol
33 | GTGTACACGTGGAGCG | -0.14 kcal/mol
34 | GTAGGCACGTGGAATA | 0 kcal/mol
35 | GTCAGCACGTGTTGGT | 0.04 kcal/mol
36 | CGGAGCACGTGGTTTT | -0.08 kcal/mol
37 | GGTTACACGTGATGGA | 0.42 kcal/mol
38 | GGTCACACGTGGATGT | -0.02 kcal/mol
39 | ATGGGCACGTGGTAGT | -0.18 kcal/mol
40 | TGAAGCACGTGAGTTG | 0.13 kcal/mol
41 | TAAAGCACGTGTTTGG | -0.07 kcal/mol
42 | CGTTACACGTGTGATT | 0.11 kcal/mol
43 | ATAGTCACGTGATTAA | 0.21 kcal/mol
44 | GCTCTCACGTGTGTTG | 0.29 kcal/mol
45 | GGATACACGTGCGAGT | 0.36 kcal/mol
46 | ATCTTCACGTGTGAGT | 0.18 kcal/mol

Row | Sequence | relative binding free energy
47 | TGCGGCACGTGGGTAA | -0.17 kcal/mol
48 | CGGTGCACGTGGAGAT | 0.05 kcal/mol
49 | TCGGTCACGTGTTTTA | 0.06 kcal/mol
50 | ATAGGCACGTGTGGGT | -0.03 kcal/mol
51 | AGGTTCACGTGCTGTT | 0.21 kcal/mol
52 | GTGGTCACGTGTCAGG | 0.19 kcal/mol
53 | TCGCTCACGTGGTTTT | 0.33 kcal/mol
54 | GTAGCCACGTGGGTGT | -0.21 kcal/mol
55 | TATGTCACGTGTTCTG | -0.08 kcal/mol
56 | GTTATCACGTGGATTC | 0.31 kcal/mol
57 | TGTTCCACGTGGCGTA | -0.02 kcal/mol
58 | GGGTGCACGTGATTTT | 0.25 kcal/mol
59 | ATTAGCACGTGTCGGT | -0.08 kcal/mol
60 | GTTTACACGTGCTGGA | 0.16 kcal/mol
61 | ATGTTCACGTGGTGCC | 0.07 kcal/mol
62 | GCGTGCACGTGAAAGG | 0.25 kcal/mol
63 | AATGGCACGTGGCTAG | -0.04 kcal/mol
64 | TTTAGCACGTGACATG | 0.07 kcal/mol
65 | CCTTTCACGTGGTTTT | 0.1 kcal/mol
66 | TTTGACACGTGATTAA | 0.14 kcal/mol
67 | ATGGTCACGTGTCGCG | 0.15 kcal/mol
68 | TCGTTCACGTGGAAGG | 0.26 kcal/mol
69 | CTTGTCACGTGATGAG | 0.16 kcal/mol

Row | Sequence | relative binding free energy
70 | GGGCTCACGTGTGGGA | 0.25 kcal/mol
71 | TGGGGCACGTGGAACG | -0.1 kcal/mol
72 | TTTTGCACGTGCGGGG | 0 kcal/mol
73 | TTTGTCACGTGAATAG | 0.29 kcal/mol
74 | GTGTACACGTGGGGGG | -0.08 kcal/mol
75 | AGGCTCACGTGTATAG | 0.16 kcal/mol
76 | CGGCGCACGTGGGTAG | -0.2 kcal/mol
77 | TGTGACACGTGTAGTT | 0.24 kcal/mol
78 | CGTGTCACGTGGTGCA | -0.1 kcal/mol
79 | TTTTACACGTGTACAG | 0.04 kcal/mol
80 | ATGTACACGTGGGGTA | -0.05 kcal/mol
81 | AGAGGCACGTGACGTG | 0.03 kcal/mol
82 | GTTAACACGTGAGATT | 0.44 kcal/mol
83 | GGGGTCACGTGTTTCG | 0.13 kcal/mol
84 | CTTAACACGTGTTATT | 0.09 kcal/mol
85 | TTCAACACGTGTGTTT | 0.04 kcal/mol
86 | CGGCACACGTGATGGG | 0.17 kcal/mol
87 | TTTATCACGTGCGGGT | 0.22 kcal/mol
88 | ATTTTCACGTGAAGGG | 0.46 kcal/mol
89 | TTCAGCACGTGTCTGT | -0.04 kcal/mol
90 | AGGCGCACGTGGAGTG | -0.28 kcal/mol
91 | GCTCGCACGTGGGTGG | -0.21 kcal/mol
92 | TTGGCCACGTGTTCTG | -0.07 kcal/mol

Row | Sequence | relative binding free energy
93 | TTTATCACGTGTGTGG | 0.16 kcal/mol
94 | ATGCCCACGTGTGGGG | -0.18 kcal/mol
95 | TAGGCCACGTGTATTG | 0.02 kcal/mol
96 | GCAGACACGTGTTGGT | -0.02 kcal/mol
97 | TTTTACACGTGTAATT | 0.2 kcal/mol
98 | TGTGGCACGTGAGCCT | 0.03 kcal/mol
99 | AGGGCCACGTGTGCTT | -0.01 kcal/mol
100 | GTTCGCACGTGAGAGT | 0.26 kcal/mol
101 | AGATGCACGTGTTATG | -0.07 kcal/mol
102 | TAACGCACGTGTGAGG | 0.01 kcal/mol
103 | TTGCGCACGTGTTTAG | -0.05 kcal/mol
104 | TATTTCACGTGTAGTC | 0.23 kcal/mol
105 | TAATCCACGTGATGTA | 0.34 kcal/mol
106 | ATGTTCACGTGTTGCA | 0.08 kcal/mol
107 | GGGCTCACGTGGTATA | 0.24 kcal/mol
108 | GTGTTCACGTGAGCAT | 0.45 kcal/mol
109 | AAGGTCACGTGGGTGG | -0.05 kcal/mol
110 | CGGCGCACGTGGTAGG | -0.21 kcal/mol
111 | GAGTTCACGTGTATGT | 0.29 kcal/mol
112 | TGGTCCACGTGGGCGC | 0 kcal/mol
113 | TTCTACACGTGGGTGC | 0.04 kcal/mol
114 | ACGGTCACGTGGTGTC | 0.05 kcal/mol
115 | TCAGGCACGTGGTTGC | -0.13 kcal/mol
